Experimental data taken from PubChem BioAssay (Tox21).
Where “and” joins values, the source holds several entries; their conditions need not be identical. Identical values can stand only once. This list was built around the results that the source calls inconclusive (neither active nor inactive); the mix of calls is not that of the screen. Entries that show only a call come without a potency. For some of these results: A potency beside an inconclusive call is a rough fit, not a confirmed value. Calls of active or inactive are those of the source. Unless noted, the call rests on the fitted dose curve; in most records, active means well fitted curve in the direction sought with a large enough effect in the repeat runs; inconclusive means weak or mixed curves; inactive means no such curve, though single readings can be large; an effect the other way counts as inactive or inconclusive.

Key:
[1] = qHTS assay to identify small molecule antagonists of the thyroid receptor (TR) signaling pathway (AID 743065); further: nearly all actives have a fitted effect of over 55% in size; further: potency means the concentration at half of the fitted maximal effect
In short: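 GH3.TRE-Luc rat pituitary cells carrying two TR response elements driving luciferase were plated for 4 h, given compound plus 1 nM T3 (final), and incubated 23.5 h at 37 C. ONE-Glo luminescence measured reporter inhibition; CellTiter-Fluor fluorescence tracked cytotoxicity.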

[2] = qHTS assay for small molecule activators of the heat shock response signaling pathway (AID 743210; active means well fitted activation curve with a large enough effect in the signal ratio in the repeat runs, with a control signal flat, not every such curve was filed as active; inconclusive means weak or mixed curves; the % refers to the signal ratio); conditions: HeLa HSE-bla reporter, beta-lactamase ratio, 5 h; activation: at 62.6 µM (top of the series) unless noted
In short: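 HSE-bla HeLa cells (beta-lactamase reporter under heat shock response elements) were exposed to compounds for 5 h at 37 C, then loaded with LiveBLAzer B/G FRET substrate for 2.5 h at room temperature before fluorescence reading.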

[3] = qHTS assay to identify small molecule antagonists of the estrogen receptor alpha (ER-alpha) signaling pathway using the BG1 cell line - cell viability counter screen (AID 743081); conditions: BG1Luc4E2 viability, CellTiter-Fluor, 22 h; activity change, negative = cytotoxicity: at 70.3 µM (top of the series) unless noted;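 further: compound given together with 17beta-estradiol as the ER stimulus; nearly all actives have a fitted effect of over 45% in size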; further: potency means the concentration at half of the fitted maximal effect
[4] = Caspase-3/7 induction in HepG2 cells by small molecules, qHTS cell viability counter screen (AID 1346981); further: nearly all actives have a fitted effect of over 30% in size; further: potency means the concentration at half of the fitted maximal effect
In short: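 Steps: seed 2,000 HepG2 cells per well; incubate 5 hr at 37 C; pin-add compounds in DMSO; incubate 16 hr; add CellTiter-Fluor; after 1 hr at 37 C and 5% CO2, read fluorescence.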

[5] = A CellTox Green Cytotoxicity Assay to monitor cytotoxicity in HepG2 cells - 24 hour (AID 1224878); further: nearly all actives have a fitted effect of over 45% in size
In short: (§1)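 Real-time, homogeneous cytotoxicity readout: dead-cell DNA staining by CellTox Green in HepG2 monolayers, fluorescence measured at timed intervals up to 40 h of continuous compound exposure.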

[6] = Caspase-3/7 induction in CHO-K1 cells by small molecules, qHTS cell viability counter screen (AID 1346979); further: potency means the concentration at half of the fitted maximal effect; nearly all actives have a fitted effect of over 35% in size
In short: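 In the same wells as the caspase read, viability of compound-treated wild-type CHO-K1 cells was assessed using CellTiter-Fluor, added after 16hr at 37C and measured by fluorescence following 1hr further incubation.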

[7] = biological target: Cytochrome P450 3A4 (Homo sapiens) (UniProt P08684); assay: Cytochrome P450 Family 3 Subfamily A Member 4 (CYP3A4) small molecule antagonists: luciferase reporter qHTS assay (AID 1671201); further: nearly all actives have a fitted effect of over 50% in size; further: potency means the concentration at half of the fitted maximal effect
Chain of UniProt P08684 (P08684 whole entry, looked up): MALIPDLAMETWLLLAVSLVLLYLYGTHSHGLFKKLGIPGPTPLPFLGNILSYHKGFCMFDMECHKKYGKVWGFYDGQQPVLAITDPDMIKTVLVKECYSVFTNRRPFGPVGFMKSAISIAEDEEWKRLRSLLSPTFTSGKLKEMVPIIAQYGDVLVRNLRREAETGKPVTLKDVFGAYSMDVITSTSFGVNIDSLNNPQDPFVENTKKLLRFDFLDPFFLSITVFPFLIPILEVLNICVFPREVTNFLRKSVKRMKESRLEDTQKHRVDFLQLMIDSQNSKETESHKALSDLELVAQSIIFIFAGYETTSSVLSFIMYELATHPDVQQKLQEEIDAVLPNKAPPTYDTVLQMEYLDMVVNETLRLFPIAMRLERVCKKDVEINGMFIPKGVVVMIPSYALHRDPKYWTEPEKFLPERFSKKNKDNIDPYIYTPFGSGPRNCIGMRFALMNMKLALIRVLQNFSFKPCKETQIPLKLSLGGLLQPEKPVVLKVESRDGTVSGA
In short: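 Inhibition of CYP3A4 is measured as loss of light: the enzyme converts a proluciferin substrate to luciferin, detected luminescently. Reaction ran 1 h at room temperature with NADPH regeneration after a 10 min compound preincubation.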

[8] = qHTS RealTime-Glo MT Cell Viability Assay in HEK293 cells - 40 hour (AID 1224874); conditions: RealTime-Glo luminescence; max response: stronger effect = lower value; further: nearly all actives have a fitted effect of over 50% in size; further: potency means the concentration at half of the fitted maximal effect
In short: (§2)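 Nonlytic bioluminescent viability monitoring. HEK293 at 600 cells/well with reagent; 5 h settle; compound transfer by pintool; plates held at 37 C and read at set time points.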

[9] = qHTS RealTime-Glo MT Cell Viability Assay in HEK293 cells - 8 hour (AID 1224887); further: top concentration of the series differs between compounds; nearly all actives have a fitted effect of over 50% in size
In short: as §2

[10] = qHTS assay to identify small molecule antagonists of the sonic hedgehog signaling (Shh) pathway - cell viability counter screen (AID 1259367); further: nearly all actives have a fitted effect of over 55% in size
In short: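 NIH/3T3-derived Gli1-Luc reporter cells (2,000 per well) rested 4 hr at 37 C, then received DMSO compounds plus conditioned medium. After 23 hr of treatment, CellTiter-Fluor was added for 1 hr at 37C and fluorescence read.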

[11] = biological target: Peroxisome proliferator-activated receptor delta (Homo sapiens) (UniProt Q03181); assay: qHTS assay to identify small molecule antagonists of the peroxisome proliferator-activated receptor delta (PPARd) signaling pathway (AID 743215; active means well fitted inhibition curve with a large enough effect in the signal ratio in the repeat runs, not every such curve was filed as active; inconclusive means weak or mixed curves, or effect the other way; inactive means no such curve, though single readings can be large or run the other way; the % refers to the signal ratio;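 further: cells stimulated with agonist L165041 at 300 nM final during compound exposure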); conditions: HEK293H PPARd-UAS-bla, beta-lactamase FRET ratio, antagonist, 17 h; ratio activity, negative = inhibition: at 62 µM (top of the series) unless noted
Chain of UniProt Q03181 (Q03181 whole entry, looked up): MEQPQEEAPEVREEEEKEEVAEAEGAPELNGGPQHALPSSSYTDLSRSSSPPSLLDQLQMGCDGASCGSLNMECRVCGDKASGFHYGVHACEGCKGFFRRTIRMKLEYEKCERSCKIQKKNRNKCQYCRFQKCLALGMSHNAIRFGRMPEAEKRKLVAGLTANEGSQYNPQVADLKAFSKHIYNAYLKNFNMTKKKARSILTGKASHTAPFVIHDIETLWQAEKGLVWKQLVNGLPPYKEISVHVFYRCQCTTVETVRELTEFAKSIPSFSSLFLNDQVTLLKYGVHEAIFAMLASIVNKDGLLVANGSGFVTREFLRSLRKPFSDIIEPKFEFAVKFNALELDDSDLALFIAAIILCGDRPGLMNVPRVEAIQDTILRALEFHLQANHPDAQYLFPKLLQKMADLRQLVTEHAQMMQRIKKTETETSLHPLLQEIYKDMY
In short: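 Inhibition of L165041-driven (300 nM final) PPARd signaling is scored in HEK293H UAS-bla cells. Exposure lasts 17 h at 37 C; beta-lactamase activity is then read by FRET substrate fluorescence after 2 h at room temperature.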

[12] = qHTS assay to identify small molecule antagonists of the androgen receptor (AR) signaling pathway - cell viability counter screen (AID 743033; further: nearly all actives have a fitted effect of over 45% in size); conditions: AR-bla HEK293 viability, CellTiter-Glo luminescence, 16 h; activity change, negative = cytotoxicity: at 58.5 µM (top of the series) unless noted
[13] = qHTS assay to identify small molecule antagonists of the androgen receptor (AR) signaling pathway using the MDA cell line - cell viability counter screen (AID 743041; further: nearly all actives have a fitted effect of over 45% in size); conditions: MDA-kb2 viability, CellTiter-Fluor, 16 h, cells co-treated with R1881 androgen agonist; viability change, negative = cytotoxic: at 70.3 µM (top of the series)
In short: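 MDA-kb2 AR-luc human breast carcinoma cells (MMTV-luciferase, AR/GR responsive) were treated with compounds plus R1881 agonist for 16 h at 37 °C. Viability was read as CellTiter-Fluor fluorescence in the same wells as the reporter assay.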

[14] = A CellTox Green Cytotoxicity Assay to monitor cytotoxicity in HEK293 cells - 8 hour (AID 1224884); further: nearly all actives have a fitted effect of over 35% in size
In short: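 Cytotoxicity was tracked continuously in HEK293 cells by a DNA-binding dye excluded from viable cells. Compounds were transferred in DMSO 5 h after seeding; fluorescence was recorded at intervals up to 40 h.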

[15] = qHTS RealTime-Glo MT Cell Viability Assay in HEK293 cells - 24 hour (AID 1224886); further: top concentration of the series differs between compounds; nearly all actives have a fitted effect of over 50% in size
In short: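 Quantitative high-throughput screen of the Tox21 10K library in HEK293: cells and RealTime-Glo reagents plated together, compound added at 5 h, luminescence monitored through 40 h at 37 C.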

[16] = biological target: Voltage-gated inwardly rectifying potassium channel KCNH2 (Homo sapiens) (UniProt Q12809); assay: Human Ether-a-go-go-Related Gene (hERG) channel small molecule antagonists: fluorescence cell-based qHTS assay (AID 1671200); further: nearly all actives have a fitted effect of over 50% in size; further: potency means the concentration at half of the fitted maximal effect;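 on activity change, negative = inhibition: hERG-expressing U2OS cells given a thallium stimulus after FluxOR II dye loading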
Chain of UniProt Q12809 (Q12809 whole entry, looked up): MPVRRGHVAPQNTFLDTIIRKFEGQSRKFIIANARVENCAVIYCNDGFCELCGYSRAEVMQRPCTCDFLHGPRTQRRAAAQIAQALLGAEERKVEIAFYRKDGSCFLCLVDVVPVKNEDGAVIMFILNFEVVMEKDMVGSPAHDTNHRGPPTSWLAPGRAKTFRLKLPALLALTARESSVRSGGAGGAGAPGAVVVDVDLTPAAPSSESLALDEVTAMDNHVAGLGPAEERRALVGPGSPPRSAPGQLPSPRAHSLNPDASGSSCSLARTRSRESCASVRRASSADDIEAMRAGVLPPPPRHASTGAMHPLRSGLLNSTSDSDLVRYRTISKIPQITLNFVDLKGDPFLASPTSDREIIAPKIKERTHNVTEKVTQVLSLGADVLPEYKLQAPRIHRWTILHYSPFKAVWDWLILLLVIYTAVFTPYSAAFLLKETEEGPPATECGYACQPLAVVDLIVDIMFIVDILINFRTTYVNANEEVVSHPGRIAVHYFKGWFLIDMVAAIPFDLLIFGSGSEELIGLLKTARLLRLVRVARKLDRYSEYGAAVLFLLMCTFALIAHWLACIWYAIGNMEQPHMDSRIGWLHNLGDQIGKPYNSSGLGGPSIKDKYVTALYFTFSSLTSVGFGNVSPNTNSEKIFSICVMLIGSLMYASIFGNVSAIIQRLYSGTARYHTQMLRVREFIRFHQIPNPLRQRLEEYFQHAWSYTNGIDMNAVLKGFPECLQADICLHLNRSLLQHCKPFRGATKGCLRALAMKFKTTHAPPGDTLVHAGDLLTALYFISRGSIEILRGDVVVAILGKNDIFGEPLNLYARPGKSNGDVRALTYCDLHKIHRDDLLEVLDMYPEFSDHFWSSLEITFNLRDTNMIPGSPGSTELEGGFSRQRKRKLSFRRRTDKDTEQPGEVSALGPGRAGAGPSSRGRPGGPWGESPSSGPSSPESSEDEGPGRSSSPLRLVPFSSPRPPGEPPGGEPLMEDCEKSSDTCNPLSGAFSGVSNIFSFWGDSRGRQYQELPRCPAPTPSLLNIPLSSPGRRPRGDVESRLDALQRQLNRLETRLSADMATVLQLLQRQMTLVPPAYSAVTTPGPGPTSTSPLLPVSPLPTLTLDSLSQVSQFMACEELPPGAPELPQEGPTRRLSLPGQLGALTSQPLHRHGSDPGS
In short: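 Quantitative HTS in hERG-U2OS cells: thallium entry through the channel reports activity, read as continuous 480/540 nm fluorescence over 2 min after stimulus addition.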

[17] = qHTS assay to identify small molecule that activate the aryl hydrocarbon receptor (AhR) signaling pathway - cell viability counter screen (AID 743086); further: nearly all actives have a fitted effect of over 45% in size; further: potency means the concentration at half of the fitted maximal effect;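 on viability change, negative = cytotoxic: HepG2 liver cells carrying the AhR DRE luciferase reporter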
In short: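 HepG2-AhR-luc (HG2L7.5c1) cells, 4000/well, were preincubated 5 h at 37C, exposed to compound in qHTS format for 24 hr at 37C, then given CellTiter-Fluor for 30 min; viability was read as fluorescence in the reporter wells.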

[18] = qHTS assay to identify small molecule antagonists of the estrogen receptor alpha (ER-alpha) signaling pathway using the BG1 cell line (AID 743080; calls by dose curve;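 further: BG1 cells stimulated with 17beta-estradiol alongside compound; nearly all actives have a fitted effect of over 25% in size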; further: potency means the concentration at half of the fitted maximal effect); conditions: BG1Luc4E2 ERE-luciferase antagonist mode, luminescence; activity change, negative = inhibition: at 70.3 µM (top of the series) unless noted
In short: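 Seeding, 24 h rest, compound transfer from DMSO, 17beta-estradiol addition, 21.5 h incubation, CellTiter-Fluor (30 min, 37 C), then ONE-Glo (30 min, room temperature): this sequence was run on BG1-Luc-4E2 reporter cells.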

[19] = biological target: Vitamin D3 receptor (Homo sapiens) (UniProt P11473); assay: qHTS assay to identify small molecule agonists of the vitamin D receptor (VDR) signaling pathway (AID 743222; calls by dose curve); conditions: HEK293T VDR-UAS-bla, beta-lactamase FRET ratio, 16 h; activation: at 63.5 µM (top of the series) unless noted
Chain of UniProt P11473 (P11473 whole entry, looked up): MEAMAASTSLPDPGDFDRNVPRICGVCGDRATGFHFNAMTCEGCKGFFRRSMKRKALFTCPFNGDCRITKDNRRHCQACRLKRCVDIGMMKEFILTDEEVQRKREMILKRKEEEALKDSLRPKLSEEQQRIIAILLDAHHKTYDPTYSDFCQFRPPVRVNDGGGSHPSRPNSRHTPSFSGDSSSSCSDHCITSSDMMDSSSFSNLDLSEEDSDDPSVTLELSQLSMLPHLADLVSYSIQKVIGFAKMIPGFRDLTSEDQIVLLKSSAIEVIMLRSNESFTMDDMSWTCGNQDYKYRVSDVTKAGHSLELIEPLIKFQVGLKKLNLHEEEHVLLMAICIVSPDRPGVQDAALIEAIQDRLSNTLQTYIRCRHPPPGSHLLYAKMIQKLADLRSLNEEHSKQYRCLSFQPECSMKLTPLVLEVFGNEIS
In short: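 Quantitative HTS agonist-mode screen: compounds in DMSO were pin-transferred onto VDR-bla cells and incubated 16 h at 37C, 5% CO2. Reporter activity was detected with LiveBLAzer B/G FRET substrate after 2 h at room temperature.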

[20] = A CellTox Green Cytotoxicity Assay to monitor cytotoxicity in HepG2 cells - 40 hour (AID 1224879); further: nearly all actives have a fitted effect of over 40% in size
In short: as §1
Tags describe the fitted curve by direction and shape.

For `CC1=CC(C)C(C=O)C(C)C1` (stereo not drawn), the Potency [1] was “inactive” and the Potency [2] was “inactive”.
With `CN1C(CCl)Nc2cc(Cl)c(S(N)(=O)=O)cc2S1(=O)=O` (stereo not drawn) the Potency [3] was “inactive” and the Potency [4] was “inactive”.
For `CCCc1cc(C(N)=S)ccn1`, the Potency [2] was “inactive”.
In the case of `O=C(O)COc1nn(Cc2ccccc2)c2ccccc12`, the Potency [1] is reported as “inactive”, the Potency [5] is reported as “inactive” and the Potency [6] is reported as inconclusive: 11.9 µM [rising, partial curve, poor fit]. The Potency [7] was “inactive”.
With `NC(=O)c1ccc([N+](=O)[O-])cc1Cl` the Potency [2] was “inactive”.
For `Nc1ccc(S(=O)(=O)Nc2ccnn2-c2ccccc2)cc1`, the max response [8] was inactive: 3.19%.
With `CC1=C(C(=O)O)N2C(=O)[C@@H](NC(=O)[C@H](N)c3ccccc3)[C@H]2SC1` the Potency [9] was “inactive” and the Potency [10] was “inactive”.
For `CN1C(=O)CC[C@H]1c1cccnc1`, the Potency [3] was “inactive”.
With `OCC(O)[C@@H](O)[C@H](O)[C@H](O)CO[C@H]1O[C@H](CO)[C@@H](O)[C@H](O)[C@H]1O` (stereo partly drawn) the Potency [5] was “inactive” and the Potency [7] was “inactive”.
With `O=[Si]=O` the Potency [11] was “inactive”.
In the case of `OCCOc1ccc(OCCO)cc1`, the Potency [12] is reported as “inactive” and the Potency [13] is reported as “inactive”.
For `CC1CNCC(C)O1` (stereo not drawn), the Potency [4] was inconclusive: 27.3 µM [cytotoxic, partial curve, poor fit].
In the case of `CCNC(=O)C1CC(C)CCC1C(C)C` (stereo not drawn), the Potency [9] is reported as “inactive”.
For `CCCCCCS`, the Potency [14] was “inactive” and the Potency [9] was “inactive”.
In the case of `Nc1cc([N+](=O)[O-])ccc1Cl`, the Potency [15] is reported as “inactive” and the Potency [7] is reported as inconclusive: 71 µM [inhibitor, partial curve, poor fit].
For `C=C1C[C@]23C[C@@]1(O)CC[C@H]2[C@@]12C=C[C@H](O)[C@@](C)(C(=O)O1)[C@H]2[C@@H]3C(=O)O`, the Potency [9] was “inactive” and the Potency [16] was “inactive”.
For `COc1ccnc(CS(=O)c2nc3cc(OC(F)F)ccc3[nH]2)c1OC` (stereo not drawn), the Potency [1] was inconclusive: 19.4 µM [inhibitor, partial curve, poor fit], the Potency [17] was inconclusive: 5.96 µM [rising, full curve, poor fit] and the Potency [8] was inconclusive: 43.9 µM [cytotoxic, partial curve, poor fit]. For the same molecule, the Potency [16] was inconclusive: 55.3 µM [inhibitor, single point].
In the case of `CCCCCC(=O)OCC`, the Potency [13] is reported as “inactive”.
With `CC/C=C(\C(=O)N[C@@H]1C(=O)N2C(C(=O)OCOC(=O)C(C)(C)C)=C(COC(N)=O)CS[C@H]12)c1csc(N)n1` the Potency [1] was inconclusive: 33.5 µM [inhibitor], the Potency [18] was “inactive” and the Potency [3] was inconclusive: 33.5 µM [cytotoxic, single point] and inconclusive: 11.9 µM [cytotoxic, single point]. For the same molecule, the Potency [16] was “inactive and inconclusive: 338 nM [inhibitor, full curve, poor fit]”.
For `CO[C@@]1(NC(=O)CSC[C@@H](N)C(=O)O)C(=O)N2C(C(=O)O)=C(CSc3nnnn3C)CS[C@@H]21`, the Potency [3] was inconclusive: 15 µM [rising, partial curve, poor fit] and the activation [19] was inconclusive: 14.7%.
With `CCOC(=O)c1cccc(N)c1` the Potency [18] was inconclusive: 23.7 µM [rising, partial curve] and the Potency [20] was “inactive”.
With `CC1CN(c2cc3c(cc2F)c(=O)c(C(=O)O)cn3-c2ccc(F)cc2F)CCN1` (stereo not drawn) the Potency [12] was “inactive”, the Potency [3] was inconclusive: 37.6 µM [rising, partial curve, poor fit] and the Potency [17] was “inactive”.
